Test results reported in PubChem BioAssay AID1508624 (National Center for Advancing Translational Sciences (NCATS), 2021).
In all, about 48,000 compounds went through this assay and about 120 (0.25%) were called active. Not shown: some 4% with an inconclusive outcome. The call rests on the fitted dose curve; in most records, active means well fitted activation curve with a large enough effect; inconclusive means small, poorly fitted or top-dose-only effect, or another doubt; inactive means no such curve, though single readings can be large or run the other way. The list shows a part of the results.

Test: Primary qHTS for Identification of Small Molecule Activators of Huntingtin-Antisense Promoter Activity; further: nearly all actives have a fitted effect of over 55% in size
Details: HEK293 HTT-AS promoter firefly luciferase reporter, 24 h; series mostly up to 57.5 µM; activity change, positive = activation: at the top concentration
Summary of the method: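 HEK293 Fluc reporter, 2,500 cells/well, 24 h pre-culture; cpds up to 57.5 uM final, 24 h 37 degrees C; Dual-Glo, 10 min RT; normalized vehicle = 0%, zero RLU = -100%.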

Activity change, positive = activation, inactive:
COc1ccc(-c2cc(C(F)(F)F)nc(SCC(=O)NCCc3ccccc3)n2)cc1 -9.04%
N#Cc1c(-n2ncnc2-c2ccc(F)cc2)sc2c1CCCCC2 -61.7%
O=C(CSCc1cnn(-c2ccccc2)c1-n1cccc1)NCc1cccc(Cl)c1 -40.3%
CCCSc1ncc(Cl)c(C(=O)Nc2sc3c(c2C(=O)OC)CCCC3)n1 -9.01%
O=C(C1CCN(S(=O)(=O)c2ccc(Br)s2)CC1)N1CCN(c2cccc(C(F)(F)F)c2)CC1 -41.1%
CSc1ccc(CCNC(=O)c2ccc3c(Cl)c4c(nc3c2)CCCC4)cc1 -38.9%
CCCSc1ncc(Cl)c(C(=O)Nc2nc3ccc(C)cc3s2)n1 -7.55%
COc1ccc(S(=O)(=O)Nc2cc(-c3c(O)ccc4ccccc34)c(O)c3ccccc23)cc1 -15.3%
CCc1ccccc1NC(=O)Cn1nc(C(F)(F)F)c2c1CCC2 -13.1%
Cc1cc(C)c2c(CC(=O)Nc3ccccc3C(F)(F)F)coc2c1 -4.07%
COc1ccc(S(=O)(=O)c2c(O)c3ccc(C(=O)Nc4ccccc4)cc3[nH]c2=O)cc1 -25.1%
Cc1cccc(NC(=O)C2CCN(c3nnc(C)c4c(C)n(-c5ccccc5)nc34)CC2)c1C -5.46%
Cc1ccc(Cl)cc1NC(=O)C1CCCN(c2cnccn2)C1 (stereo not given) 5.83%
O=C(NCc1ccccc1)C(=O)NCC(c1ccco1)S(=O)(=O)c1cccs1 (stereo not given) -4.1%
CCc1nn(CC(=O)Nc2cccc(C(C)=O)c2)c(=O)c2cc3sccc3n12 -26.5%
CCS(=O)(=O)c1ncc(Cl)c(C(=O)NCc2ccc(OC)cc2)n1 -93.7%
CN(C)c1ccc(C(CNS(=O)(=O)c2ccc(Cl)cc2)N2CCOCC2)cc1 (stereo not given) -21.8%
CCOC(=O)c1ccccc1NC(=O)Cn1c(=O)n(Cc2nc(C)no2)c(=O)c2ccccc21 -20.4%
CN(c1ccccc1C(=O)O)S(=O)(=O)c1ccc2[nH]c(=O)oc2c1 -9.43%
O=C(CCn1c(=O)c2ccccc2n(Cc2cccc(Cl)c2)c1=O)NCCc1ccccc1 -10.6%
Cc1cccc(C)c1NC(=O)Cn1nnc(C(=O)NCc2ccc(F)cc2)c1N 5.35%
Cc1ccccc1CCNC(=O)C1CCN(S(=O)(=O)c2ccc3c(ccn3C)c2)CC1 -9.82%
O=C(NCC1(c2ccccc2)CCCC1)C(=O)Nc1cccc(Br)c1 -4.46%
Cn1c(=O)c2c(nc(Oc3ccccc3Cl)n2Cc2ccc(C#N)cc2)n(C)c1=O -11.7%
COc1cc(Nc2ncc3c(n2)CCN(Cc2cccc(C)c2)C3)cc(OC)c1 -20.1%
Cn1nnnc1SCCCNCc1cccc(OCc2ccc(F)cc2)c1 -23.1%
Cc1oc2c(C)c3oc(=O)c(CC(=O)N4CCCCC4)c(C)c3cc2c1C -8.78%
CCc1nn(C(C)C(=O)N2CCN(c3ccccc3)CC2)c(=O)c2cc3occc3n12 (stereo not given) -30.6%
CCCN(CCC)C(=O)C(Cc1ccccc1)NS(=O)(=O)c1ccc2c(c1)c(=O)n(C)c(=O)n2C (stereo not given) -13.7%
CSc1ccc(-c2nc3cccc(C)n3c2Nc2ccc(Cl)cc2)cc1 -29.5%
COc1ccccc1N1C(=O)N(CC(=O)C(C)(C)C)c2ccccc2S1(=O)=O -23.1%
CCCCC(CC)COC(=O)c1ccc(N(C)C)cc1 (stereo not given) 2.75%
COc1cc(O)c(C(=O)c2ccccc2)cc1S(=O)(=O)O 3.32%
CN(C)CCNC(=O)c1ccc(-c2nn(C)c(=O)c3ccccc23)cc1 -17.2%
O=C1CN(C(=O)COc2ccc(Cl)cc2Cl)C(c2ccccc2)c2cc(F)ccc2N1 (stereo not given) -38.9%
Nc1cccc2c1C(=O)N(C1CCC(=O)NC1=O)C2=O (stereo not given) -8.71%
COc1cc(OC)cc(OC)c1 0.711%
O=C(O)Cc1ccccc1Oc1ccc(Cl)cc1Cl -7.58%
CCOc1ccc(CCNC(=O)c2nn(C)c3c2CSc2ccccc2-3)cc1 -18.9%
O=C(O)c1ccc(NC(=O)c2cc(S(=O)(=O)N3CCCCC3)c(Cl)cc2Cl)cc1 -17.5%
Cc1cccc(C(=O)NNc2ncnc3c2cnn3-c2ccc(C)cc2C)c1 8.19%
CCOc1ccccc1CNC(=O)CCCn1ccc2cc(S(=O)(=O)N3CCCC3)ccc21 -18.5%
COc1cccc(C(=O)Nc2nnc(S(=O)(=O)N3CCCC3)s2)c1 -2.72%
CC(C)c1ccc(S(=O)(=O)c2cnc(SCC(=O)Nc3ccc4c(c3)OCCO4)[nH]c2=O)cc1 -5.83%
Cc1ccc(OCC(=O)Nc2nnc(S(=O)(=O)N3CCCCCC3)s2)cc1 -15.8%
O=C(NCc1ccc(F)cc1)C1(c2cccs2)CCOCC1 -18.6%
COc1cc(Nc2nc3c(S(=O)(=O)c4ccc(C)c(C)c4)nnn3c3ccsc23)cc(OC)c1 -16.2%
CCOC(=O)c1c(NC(=O)C2c3ccccc3Oc3ccccc32)sc(C)c1CC -23.3%
CCn1c(=O)cc(OCC(=O)N(C)c2cc(Cl)ccc2C)c2ccccc21 -15.7%
COC(=O)c1ccccc1NC(=O)N1CCC(N2CCN(Cc3ccc(F)cc3)C(=O)C2=O)CC1 -4.26%
CCOc1ccccc1NC(=O)CSc1nccn1-c1cccc(C)c1 -21%
COc1ccc2c(Sc3ccc(C)cc3)c(C(=O)NC(C)C)[nH]c2c1 6.31%
CCOc1ccc(-n2c(=O)c3c(C)c(C)sc3n(CC(=O)NCCc3ccccc3)c2=O)cc1 11.8%
Cc1ccc(S(=O)(=O)C(CNC(=O)C(=O)NCCc2ccccc2)c2cccs2)cc1 (stereo not given) -46.3%
O=c1oc2ccccc2c(N2CCN(c3ccccc3F)CC2)c1CN1CCCC1 -13.6%
CCOc1ccc(C2CC(=O)c3c([nH]c(C(=O)OCC4CCCCC4)c3C)C2)cc1 (stereo not given) -9.86%
COCCCNC(=O)c1nn(-c2ccc(C)cc2)nc1CO -16.3%
COc1cccc(NC(=O)C(Cc2ccccc2)NS(=O)(=O)c2ccc3c(c2)c(=O)n(C)c(=O)n3C)c1 (stereo not given) -14.3%
Cc1cccc(CNC(=O)Cn2ccc3cc(S(=O)(=O)N4CCCCCC4)ccc32)c1 -31.8%
CCCc1cc(=O)oc2cc(C)c3c(-c4ccccc4)coc3c12 -19.5%
O=C(CN1C(=O)CSc2ccc(S(=O)(=O)N3CCCC3)cc21)Nc1cccc(Cl)c1 -29.5%
Cc1ccc(NC(=O)CC2Nc3ccccc3NC2=O)cc1C (stereo not given) -11.9%
CCCNC(=O)CN1C(=O)CSc2ccc(S(=O)(=O)N3CCC(C)CC3)cc21 -18.7%
Cc1ccc(Nc2c(C(C)C)c(C)c(C#N)c3nc4ccccc4n23)cc1 8.5% [at 11.5 µM, percent change from vehicle, -100% = no light]
CCN(CC)C(=O)C1CCN(S(=O)(=O)c2c(C)noc2/C=C/c2cccc(OC)c2)CC1 -21.4%
CCC(C)NC(=O)CCCc1nnc2n(CC(C)C)c(=O)c3sccc3n12 (stereo not given) -12.4%
CCOc1ccc(NC(=O)c2cc(S(=O)(=O)NC3CCCCCC3)ccc2F)cc1 -24.6%
Cc1ccccc1-c1noc(-c2ccc(NCc3ccco3)c([N+](=O)[O-])c2)n1 3.44%
COc1ccc2c(c1)CCc1c(C(=O)Nc3c(C)nn(Cc4ccccc4)c3C)noc1-2 -30.9%
O=c1cc(-c2ccc(F)cc2)nc(SCc2nc(-c3ccc(Cl)cc3)no2)[nH]1 -4.88%
CCOC(=O)c1c(C)[nH]c(C)c1S(=O)(=O)NCC(=O)NCc1cccc(C)c1 -7.3%
CCOC(=O)c1ccc(CN(Cc2ccc(Br)cc2)S(=O)(=O)c2cccc(Cl)c2C)cc1 -21.2%
COc1cc(C(=O)NCC(c2ccc(Cl)cc2)N2CCOCC2)cc(OC)c1OC (stereo not given) -9.57%
CCOC(=O)CC(NC(=O)Cn1nnc(-c2ccccc2F)n1)c1ccccc1Cl (stereo not given) -24.7%
CCc1ccc(C2C(C(=O)Nc3ccccc3C)=C(C)Nc3nc(SCc4cccc(OC)c4)nn32)cc1 (stereo not given) 5.2%
CC(=O)c1ccc(NC(=O)CSc2nc(=O)n(Cc3ccncc3)c3c2CCC3)cc1 -13.4%
CCS(=O)(=O)c1ncc(N(Cc2ccco2)Cc2ccccc2F)c(C(=O)Nc2cccc(Cl)c2)n1 -19%
Cc1ccc(N2CCN(C(=O)c3cn(C)c4ccc(S(=O)(=O)N(C)C)cc4c3=O)CC2C)cc1 (stereo not given) -10.6%
Cc1ccccc1C(=O)N(Cc1sccc1C)C1CCS(=O)(=O)C1 (stereo not given) -17.1%
COc1ccc(CCNC(=O)c2ccc(Cn3c(=O)c4ccccc4n(CC(=O)C(C)(C)C)c3=O)cc2)cc1OC -23.8%
COc1cc(NC(=O)CCn2nc(C)c(S(=O)(=O)N3CCCCC3)c2C)cc(OC)c1OC -7.24%
CC1CCCCN1CCCNC(=O)CN1C(=O)c2cccnc2Oc2ccccc21 (stereo not given) -11.9%
COc1ccccc1NC(=O)C1=C(C)Nc2c(C(=O)Nc3cccc(C)c3)cnn2C1c1ccccc1Cl (stereo not given) -14.6%
Cc1ccc(Cl)cc1NC(=O)CCCn1c(=O)c2cccn2c2cccnc21 -4.18%
COc1ccc(-c2nc3n(n2)C(c2ccc(OC)c(OC)c2)C(C(=O)Nc2cccnc2)=C(C)N3)cc1 (stereo not given) -33.6%
COCCCNC(=O)c1ccc(Cn2c(=O)c3ccccc3n(Cc3c(C)cc(C)cc3C)c2=O)cc1 -15.8%
C[C@@]12C[C@@]3(O)O[C@@H](O1)[C@]1(COC(=O)c4ccccc4)[C@@H]3C[C@@]12O[C@@H]1O[C@H](CO)[C@@H](O)[C@H](O)[C@@H]1O -8.44%
CCN1CCN(C(c2ccc(SC)cc2)c2c(O)cc(C)n(CCOC)c2=O)CC1 (stereo not given) -18.9%
CCCCN(CC)C(=O)C1CCCN(c2ncnc3onc(C)c23)C1 (stereo not given) -26.4%
COc1ccc(CNC(=O)CS(=O)Cc2nc(-c3cccc(C)c3)oc2C)cc1 (stereo not given) -9.59%
COc1cc(CNCCSc2nnnn2C)cc(Cl)c1OCc1ccccc1 -26.9%
Fc1ccccc1N1CCN(c2nccn3nc(-c4ccc(Br)cc4)cc23)CC1 -9.76%
Cc1ccc(S(=O)(=O)NCC2CCC(C(=O)NCCCOC(C)C)CC2)cc1 (stereo not given) -4.95%
CCCCN(CC)CCNC(=O)c1cc2c(=O)n(CC)c3ccccc3c2s1 0.344%
CCCCNc1nc2ccccc2c2nc(-c3ccccc3)nn12 -6.52%
